The record followed here is PubChem BioAssay AID463173 (ICCB-Longwood Screening Facility, Harvard Medical School, 2010).

About 4,300 (8.3%) of roughly 52,000 compounds were called active. No stated cut-off is given here; in the data, active means survival mostly below about 52% (no sharp cut-off); inactive means mostly above about 56%. This is one part of the list.

The assay has as its system DeltatarO mutant. The assay can be described thus: S. aureus survival, RN4220 and DeltatarO strains – OD600, teichoic acid synthesis inhibitors, primary screen (AID 463173). The note with it: S. aureus RN4220 wild type/DeltatarO growth, OD600, 18 h, active compounds read low, screened at 18.75 µg/mL (by protocol).
On to `COc1cc(OC)c(NC(=O)CC(c2cccs2)N2Cc3ccccc3C2=O)cc1Cl` (configuration not stated), for which the survival is inactive: 92%.

With `Cc1ccc2ncc3c(-c4ccc(F)cc4)nn(-c4cccc(F)c4)c3c2c1`, the survival is inactive: 93%.

Take `Cc1ccc2c(c1)c1c(c(=O)n(-c3ccccc3C)c(=O)n1CC(=O)N1CCCC1)n2C`: the survival is inactive: 78%.

For `Cc1ccccc1Nc1sc(C(=O)c2ccccc2)c(N)c1C(=O)NCc1ccc(Cl)cc1`, the survival is inactive: 100%.

Regarding `CCc1ccccc1NC(=O)CSCc1cnn(-c2ccccc2)c1-n1cccc1`, the survival is inactive: 57%.

For the molecule `Cc1ccc(Cn2cc(C(=O)c3ccc(F)cc3)c(=O)c3cc4c(cc32)OCCO4)cc1`, the survival is inactive: 67%.

With `COc1cc(C(=O)OCc2cc(=O)n3nc(C4CCCCC4)sc3n2)cc(OC)c1OC`, the survival is inactive: 119%.

Take `CCOC(=O)c1cc(C)n(CC2CCC(C(=O)Nc3ccc(C(C)=O)cc3)CC2)c1C` (configuration not stated): the survival is inactive: 102%.

As to `CCc1cccc(NC(=O)c2cn3c4c(ccc(Cl)c4c2=O)OC(C)C3)c1` (configuration not stated), the survival was inactive: 73%.

`COc1ccc(N2CCN(C(=O)c3cccc(-n4c(C)nc5cccnc54)c3)CC2)cc1`: the survival was inactive: 95%.

For the molecule `CCn1nnc2cc(C(=O)Nc3ccc(Cl)cc3C)ccc21`, the survival is inactive: 119%.

Take `CCc1cccc(-n2c(=O)c3cccnc3n2CC(=O)NCc2ccccc2)c1`: the survival is inactive: 71%.

For `O=C(NCCC1=CCCCC1)c1ccc2c(c1)N(Cc1ccccc1F)C(=O)c1ccccc1S2=O` (configuration not stated), the survival is inactive: 112%.

With `Cc1ccc2nc(N3CCN(c4ccccc4)CC3)c3nnnn3c2c1`, the survival was inactive: 88%.

In the case of `CCCNS(=O)(=O)c1ccc2nc(NC(=O)c3ccc(F)cc3)sc2c1`, the survival was inactive: 93%.

For `COC(=O)c1ccc(NC(=O)CSc2nc(C)cc(C)c2C(=O)Nc2ccccc2)cc1`, the survival was inactive: 44%.

Take `Cc1nc(-c2ccc(S(=O)(=O)Nc3ccc(C#N)cc3)cc2)co1`: the survival was inactive: 113%.

Consider `COc1cc(NS(=O)(=O)c2cnc(N)nc2)cc(OC)c1`, for which the survival was inactive: 76%.

For the molecule `CCOc1ccc(/C=C/C(=O)Nc2sc3c(c2C(=O)OC)C(C(=O)OC)CC3)cc1` (configuration not stated), the survival was inactive: 56%.

Regarding `COc1ccc(C(=O)Nc2nccs2)c(OC)c1`, the survival was inactive: 79%.

With `O=c1[nH]c(=O)n(-c2ccccc2)c(O)c1C=Nc1ccc(S(=O)(=O)N2CCCCC2)cc1`, the survival is inactive: 52%.

Take `Cc1ccc(-n2ncc(C(=O)NCCc3ccccc3)c2C2CCN(C(=O)OC(C)(C)C)CC2)c(C)c1`: the survival was inactive: 91%.

For the molecule `O=C(CSc1ccccc1)Nc1ccc(NC(=O)c2ccco2)cc1`, the survival is inactive: 98%.

Take `COc1cccc(NC(=O)Cn2c(=O)cc(C)c3c(C)nn(-c4cccc(F)c4)c32)c1`: the survival was inactive: 67%.

Turning to `CC1CCCCN1C(=O)Cn1c(=O)n(-c2ccc(Cl)cc2)c(=O)c2c3c(sc21)CCC3` (configuration not stated), the survival was inactive: 139%.

For `COc1ccc(CNC(=O)c2ccc(NC(=O)N3CC4CCCN4c4ccccc43)cc2)cc1` (configuration not stated), the survival is inactive: 67%.

For the molecule `CCN1CCN(C(c2ccc(OC)cc2)c2c(O)cc(C)n(Cc3ccco3)c2=O)CC1` (configuration not stated), the survival is inactive: 74%.

Turning to `CCN(CC)c1nc2c(-c3cccc(Br)c3)nnn2c2ccccc12`, the survival is inactive: 72%.

Take `OCCNCC(O)CN1c2ccccc2Sc2ccccc21` (configuration not stated): the survival was inactive: 92%.

`COc1cccc(NC(=O)C2CCN(S(=O)(=O)c3cccc4nonc34)CC2)c1`: the survival was inactive: 108%.

Regarding `COc1cc(C2CC(=O)Nc3c2c(C)nn3-c2nc(C)cc(C)n2)cc(OC)c1O` (configuration not stated), the survival was inactive: 78%.

`O=C(Cc1ccccc1)Nc1sc2c(c1C(=O)Nc1ccccc1)CCCCC2`: the survival was inactive: 50%.

As to `COc1cccc(-c2nn3c(=O)cc(CN4CCN(S(=O)(=O)c5ccc(C)cc5)CC4)nc3s2)c1`, the survival was inactive: 80%.

As for `Cc1ccc(CSc2nnc(-n3c(=O)c(C#N)cc4c(=O)n5cccc(C)c5nc43)s2)cc1`, the survival is inactive: 101%.

Regarding `COc1ccc(-c2nc3ccccc3n3c(-c4cccc(C)c4)c4c(=O)n(C)c(=O)n(C)c4c23)cc1`, the survival is inactive: 71%.

For `Cc1ccc(C(=O)C2CCN(C(=O)Cc3ccccc3)CC2)cc1`, the survival is inactive: 86%.

As to `CSc1nc(=O)c2c(n1C)NC(=O)CC2c1ccccc1OC(C)C` (configuration not stated), the survival is inactive: 46%.

In the case of `Cc1ccc(Nc2c(-c3ccc(N(C)C)cc3)nc3nc[nH]n23)cc1`, the survival is inactive: 67%.

Consider `COCCCn1c(=N)c(C(=O)NCC2CCCO2)cc2c(=O)n3cc(C)ccc3nc21` (configuration not stated), for which the survival is inactive: 70%.

Turning to `CC(=O)c1ccc(S(=O)(=O)Nc2ccc(-c3ccc(N4CCCCCC4)nn3)cc2)cc1`, the survival is inactive: 75%.

Take `Cc1ccc2c(=O)cc(C(=O)Nc3ccc(S(=O)(=O)N4CCC(C)CC4)cc3)oc2c1C`: the survival is inactive: 60%.

Take `Fc1ccc(CN(Cc2ccco2)Cc2nnnn2CCc2ccccc2)cc1`: the survival is inactive: 93%.

As to `Cc1ccc2nc(NS(C)(=O)=O)sc2c1`, the survival is inactive: 78%.

With `Nc1c(C(=O)NCc2ccc(Cl)cc2Cl)nnn1Cc1ccc(Br)cc1`, the survival was active: 45%.

With `CC(C)CCNC(=O)C1CC(=O)N(c2ccccc2)C1` (configuration not stated), the survival is inactive: 67%.

For the molecule `COc1ccc(OCC(=O)Nc2cc(-c3ccccc3F)nn2-c2ccccc2)cc1`, the survival was inactive: 92%.

For `CCc1ccc(CNC(=O)c2cc3cc(S(=O)(=O)N4CCCCC4)ccc3n2C)cc1`, the survival was inactive: 60%.

On to `CCCn1ccc2c(OCC(=O)Nc3cc(C)ccc3C)cccc2c1=O`, for which the survival was inactive: 99%.

With `Cc1ccc(S(=O)(=O)NCC2CCC(C(=O)NCc3ccc(F)cc3)CC2)cc1` (configuration not stated), the survival was inactive: 72%.

For `CSc1ccc(CNC(=O)C2CCCN(S(=O)(=O)N(C)c3ccc(F)cc3)C2)cc1` (configuration not stated), the survival was inactive: 73%.

As for `COc1cccc(-c2cn3c(n2)sc2cc(C(=O)NCCCc4ccccc4)ccc23)c1`, the survival is inactive: 54%.

On to `Cc1nn(Cc2ccc(Cl)c(Cl)c2)c(C)c1NC(=O)c1noc2c1CCc1ccccc1-2`, for which the survival is active: 46%.

In the case of `CCc1ccc2c(c1)c(=O)c(S(=O)(=O)c1ccc(Cl)cc1)cn2CC`, the survival is inactive: 78%.

On to `COc1cccc(CNCCSc2nnnn2C)c1OCc1ccccc1`, for which the survival is inactive: 79%.

As to `COc1ccccc1CC(=O)Nc1cccc(C)n1`, the survival was inactive: 97%.

For `COC(=O)CC1Oc2ccccc2-n2cc(-c3ccc(C)cc3)nc21` (configuration not stated), the survival is inactive: 64%.

With `CCSc1nsc(NC(=O)Nc2cccc(F)c2)n1`, the survival is active: 1%.

In the case of `COc1ccc(/C=N/NC(=O)c2ccc3c(c2)NC(=O)C(C)(C)O3)cc1OC`, the survival is inactive: 78%.

On to `COCCNC(=O)CSc1nc(-c2cc(OC)c(OC)c(OC)c2)[nH]c1-c1ccc(Cl)cc1`, for which the survival is inactive: 91%.

Consider `CCOCCCn1c(SCC(=O)OCC)nc2c(sc3ccccc32)c1=O`, for which the survival was inactive: 124%.

In the case of `CC1CCN(c2ncccc2C(=O)NC2CCCCC2)CC1`, the survival was inactive: 76%.

For the molecule `Cc1ccc(S(=O)(=O)N(CCO)Cc2cc3cc(C)c(C)cc3[nH]c2=O)cc1`, the survival is inactive: 72%.

Take `Cc1cccc(C(C)C)c1NC(=O)C1CCCN1S(=O)(=O)c1cccc2nsnc12` (configuration not stated): the survival is inactive: 65%.

On to `Cc1ccc(C(=O)CSc2nc(-c3ccccc3)nc3c2CCCC3)c(C)c1`, for which the survival is inactive: 47%.

Consider `CCC1CN(C(=O)N2CCC(C(=O)NCCc3ccccc3Cl)CC2)c2cc(C)ccc2O1` (configuration not stated), for which the survival is inactive: 74%.

Turning to `C=CCn1cc(F)c(=O)n(CC=C)c1=O`, the survival was inactive: 75%.

Take `COc1cc(NC(=O)CN2c3ccccc3S(=O)(=O)c3ccccc32)cc(OC)c1`: the survival was inactive: 69%.

Turning to `CCN(CC)S(=O)(=O)Cc1ccccc1`, the survival was inactive: 77%.

For `Cc1nc2ccccc2n1C(=O)CCC(=O)O`, the survival was inactive: 84%.

On to `Cc1ccc(Nc2nnc(-c3ccc(C)c(S(=O)(=O)N4CCN(C)CC4)c3)c3ccccc23)cc1`, for which the survival is inactive: 80%.

As for `CCOc1c(C)cc(-c2ncccc2O)cc1C`, the survival was inactive: 72%.

Take `CCc1ccc(NC(=O)CN(c2ccc(C)cc2)S(=O)(=O)c2cccs2)cc1`: the survival is inactive: 69%.

Regarding `COc1ccc(-c2cc(C)no2)cc1S(=O)(=O)N1CCc2ccccc21`, the survival was inactive: 67%.

As to `Cn1c(=O)c2c(SCC(=O)Nc3ccccc3C(F)(F)F)nc(C3CCCC3)nc2n(C)c1=O`, the survival was inactive: 87%.

With `Cc1ccc(Cl)cc1NC(=O)Nc1nnc(N(C)Cc2ccccc2)s1`, the survival was inactive: 66%.

For `Cc1ccc(CN(C(=O)c2ccccc2)c2ccccn2)o1`, the survival was inactive: 103%.

Turning to `O=C(O)CCCCn1c(SCC(=O)Nc2ccccc2C(F)(F)F)nc2ccsc2c1=O`, the survival was inactive: 100%.

`Cc1oc2c(c1C(=O)NCc1cc(C(=O)O)co1)CCCC2`: the survival is inactive: 83%.

As to `CCc1ccc(C(=O)CC2(O)C(=O)N(C(C)C)c3ccccc32)cc1` (configuration not stated), the survival is inactive: 79%.

Consider `CCCCn1cc(S(=O)(=O)c2ccc(OC)cc2)c(=O)c2cc(CC)ccc21`, for which the survival was inactive: 82%.

Regarding `O=C(Cc1ccc(F)cc1)Nc1nncs1`, the survival is inactive: 99%.

With `O=S(=O)(c1ccccc1)c1nnn2c1nc(NC1CCCCC1)c1sccc12`, the survival was inactive: 71%.

On to `Cc1ccc(OCCCCn2nnc3sc4c(c3c2=O)CCCC4)cc1`, for which the survival was active: 48%.

With `N=C(N=C(N)N)N1CCCc2ccccc21`, the survival is inactive: 98%.

`O=C(CNCC1CCCO1)NCc1ccco1` (configuration not stated): the survival is inactive: 97%.

Take `NC(=O)CSc1nnc(-c2ccco2)n1Cc1ccco1`: the survival was inactive: 74%.

As for `Cc1ccc(NC(=O)CSc2nc(=O)n(CCN3CCOCC3)c3c2CCC3)c(C)c1`, the survival is inactive: 73%.

With `Cc1ccc(C(=O)Nc2ccc(S(=O)(=O)N3CCC(c4nc5ccccc5s4)CC3)cc2)cc1`, the survival was inactive: 61%.

With `Cc1ccc(OCC(=O)Nc2nnc(S(=O)(=O)N3c4ccccc4CC3C)s2)cc1` (configuration not stated), the survival is active: 34%.

As for `Cc1ccc(NC(=O)c2nc(S(C)(=O)=O)ncc2N(Cc2ccco2)Cc2cccs2)c(C)c1`, the survival is active: 38%.

With `CC(=O)N1CCc2nc3sc(C(=O)c4ccc(F)cc4)c(N)c3c(C(F)(F)F)c2C1`, the survival is inactive: 54%.

Regarding `CCc1ccc(NC(=O)C(=O)NCC(c2cccnc2)N2CCN(c3ccc(F)cc3)CC2)cc1` (configuration not stated), the survival was inactive: 85%.
